The whole screen tested about 380,000 compounds, of which about 4,000 (1.1%) were called active. Inconclusive means that the source gave no clear call. Such entries were picked first, then a sample of the others. The call rests on the fitted dose curve; in most records, active means well fitted activation curve with a large enough effect; inconclusive means small, poorly fitted or top-dose-only effect; inactive means no such curve, though single readings can be large or run the other way. Potencies of inconclusive entries are doubtful fits and often do not repeat.
Assay: qHTS Assay to Identify Small Molecule Activators of BRCA1 Expression; further: nearly all actives have a fitted effect of over 80% in size
Settings: MCF7-BRCA1-FFLuc reporter, luminescence, 48 h; activation: at 46.1 µM (top of the series), scaled: vehicle 0%, 10 µM genistein 100% unless noted
Procedure, shortened: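 48 h compound treatment of MCF7-BRCA1-FFLuc cells (phenol-red free MEM, 37 °C), then 15 min with luciferase substrate and luminescence imaging.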
With `COc1cc(C=O)ccc1OCc1cccc(Br)c1` the Potency was inconclusive: 3.16 µM [activator, full curve, poor fit].
In the case of `N/C(=N\OC(=O)c1ccccc1[N+](=O)[O-])c1ccccn1`, the Potency is reported as active: 5.01 µM.
For `c1ccc2c(-c3ccncc3)c[nH]c2c1`, the Potency was inconclusive: 15.8 µM [activator, partial curve, poor fit].
With `COc1cccc(-c2nnc3sc(-c4ccccn4)nn23)c1` the Potency was inconclusive: 10 µM [activator, partial curve, poor fit].
With `Cc1cc([N+](=O)[O-])ccc1NC(=O)c1cc2ccccc2o1` the Potency was active: 7.94 µM.
For `O=C(/C=C\c1ccc(-c2cccc([N+](=O)[O-])c2)o1)N1CCOCC1`, the Potency was inconclusive: 35.5 µM [activator, single point].
In the case of `Cc1cc(C(=O)COC(=O)c2ccc[nH]c2=O)c(C)n1-c1ccc(F)cc1`, the Potency is reported as inconclusive: 1.58 µM [activator, full curve, poor fit].
In the case of `O=C(c1cc2cc(F)ccc2[nH]1)N1CCc2ccccc21`, the Potency is reported as inconclusive: 4.47 µM [activator, full curve, poor fit].
In the case of `COc1ccc(CC(=O)NC(=S)Nc2ccc(S(=O)(=O)NC(C)(C)C)cc2)cc1`, the Potency is reported as “inactive”.
In the case of `CCCCNc1c(-c2ccc(SC(C)CC)cc2)nc2ccc(Cl)cn12` (stereo unspecified), the Potency is reported as inconclusive: 10 µM [activator, partial curve, poor fit].
With `CCc1ccc(NC(=O)CCn2cccc2)cc1` the Potency was inconclusive: 14.1 µM [activator, single point].
In the case of `Cc1ccc(C(=O)CSc2cc(C)[nH]c(=O)n2)cc1`, the Potency is reported as inconclusive: 1.78 µM [activator, full curve, poor fit].
For `COc1ccc(C(=O)Nc2nccs2)cc1`, the Potency was inconclusive: 2.82 µM [activator, full curve, poor fit].
With `O=C(/C=C/c1ccccc1Cl)NCc1ccco1` the Potency was inconclusive: 11.2 µM [activator, partial curve, poor fit].
In the case of `Cc1nc(N)sc1N=Nc1ccc(F)cc1`, the Potency is reported as inconclusive: 14.1 µM [activator, partial curve, poor fit].
For `CN(CC(=O)Nc1ccc(F)c(F)c1F)C(=O)/C=C/c1ccco1`, the Potency was “inactive”.
With `O=c1c2ccccc2oc2cc(NCCCN3CCOCC3)ccc12` the Potency was active: 5.62 µM.
For `Brc1ccc(CNc2ccc3ncccc3c2)cc1`, the Potency was active: 8.91 µM.
In the case of `COc1ccc(C(=O)Oc2cccc(Nc3ncnc4ccccc34)c2)cc1OC`, the Potency is reported as “inactive”.
For `Cc1sc(NC(=O)C2C3CCC(O3)C2C(=O)O)nc1-c1ccc(CC(C)C)cc1` (stereo unspecified), the Potency was inconclusive: 6.31 µM [activator, partial curve, poor fit].
In the case of `CCOC(=O)c1c(-c2ccc(F)cc2)csc1/N=C/N(C)C`, the Potency is reported as “inactive”.
For `Cc1cccc(Nc2nnc(SCC3CCCCO3)s2)c1` (stereo unspecified), the Potency was inconclusive: 11.2 µM [activator, partial curve, poor fit].
In the case of `CCOC(=O)/C(C#N)=C\C=C1C=CN(C)C=C1`, the Potency is reported as active: 3.98 µM.
For `COc1ccc(CCNC(=O)c2n[nH]c3ccccc23)cc1`, the Potency was inconclusive: 14.1 µM [activator, partial curve, poor fit].
For `COc1ccc(-c2cc(=O)c3ccc(O)cc3o2)cc1`, the Potency was inconclusive: 10 µM [activator, partial curve, poor fit].
For `COc1cccc(C(=O)Nc2ccc3c(C)cc(=O)oc3c2)c1`, the activation was inconclusive: 73.9% [activator].
With `Cc1cc(Oc2ccccc2)nc(SCC(=O)Nc2ccc(Cl)cc2Cl)n1` the Potency was “inactive”.
For `O=C(Cn1cnc2ccccc2c1=O)c1ccc(Br)cc1`, the Potency was inconclusive: 2.82 µM [activator, full curve, poor fit].
With `COc1cccc(NC(=O)Nc2ccc3nc(C)c(C)nc3c2)c1` the Potency was inconclusive: 14.1 µM [activator, partial curve, poor fit].
In the case of `CC(NCC(=O)Nc1cc(S(=O)(=O)N2CCOCC2)ccc1N1CCOCC1)c1ccco1` (stereo unspecified), the Potency is reported as “inactive”.
For `CN(C)c1ccc(N=Cc2ccncc2)cc1`, the Potency was inconclusive: 35.5 µM [activator, single point].
In the case of `CCC(=O)NCCc1nc2cc(NC(=O)Nc3ccccc3)ccc2n1C`, the Potency is reported as inconclusive: 1.58 µM [activator, partial curve, poor fit].
For `COc1ccc(C(=O)O/N=C(/c2cccs2)C(C)(C)C)cc1`, the Potency was “inactive”.
In the case of `CCOC(=O)c1ccc(NC(=O)Cc2cccs2)cc1`, the Potency is reported as inconclusive: 12.6 µM [activator, partial curve, poor fit].
For `Cc1nn(-c2ccccc2)c(N)c1N=Nc1ccccc1`, the Potency was inconclusive: 3.16 µM [activator, partial curve, poor fit].
With `Oc1[nH]c2ccccc2c1C=Nc1ccc2c(c1)OCCO2` the Potency was inconclusive: 0.631 µM [activator, full curve, poor fit].
For `Cc1ccc(C(=O)NC(=S)Nc2ccccc2C)cc1`, the Potency was inconclusive: 12.6 µM [activator, partial curve, poor fit].
For `CCc1ccc(/C=N/Nc2ncnc3nc[nH]c23)cc1`, the Potency was inconclusive: 0.501 µM [activator, full curve, poor fit].
In the case of `Cc1ccc(/C(N)=N/OC(=O)c2ccc(F)cc2)cc1`, the Potency is reported as active: 10 µM.
With `Cc1ccn2c(C(=O)c3ccc(Cl)cc3)cnc2c1` the Potency was inconclusive: 2.82 µM [activator, full curve, poor fit].
With `CS/C(N)=N/C(=S)Nc1cccc(Cl)c1` the Potency was inconclusive: 11.2 µM [activator, partial curve, poor fit].
With `CCOC(=O)N1CCN(C(=O)c2nc3ccccc3s2)CC1` the Potency was inconclusive: 12.6 µM [activator, partial curve, poor fit].
For `CC(=O)Nc1ccc2ccccc2c1`, the Potency was inconclusive: 35.5 µM [activator, single point].
For `COc1ccc2nc(NC(=O)Nc3ccccc3)sc2c1`, the Potency was inconclusive: 11.2 µM [activator, partial curve, poor fit].
In the case of `CCC1CCCCN1C(=O)CSc1nnc(-c2cccs2)o1` (stereo unspecified), the Potency is reported as active: 8.91 µM.
In the case of `c1ccc(OCc2nc(-c3cccs3)no2)cc1`, the Potency is reported as active: 11.2 µM.
For `Cc1ccoc1C(=O)Nc1ccc2ccccc2c1`, the Potency was inconclusive: 0.631 µM [activator, full curve, poor fit].
For `COc1ccccc1Nc1sc(C(=O)c2ccc3c(c2)OCO3)c(N)c1S(=O)(=O)c1ccccc1`, the Potency was “inactive”.
With `O=C(Cc1c(Cl)cccc1Cl)OCC(=O)c1ccc[nH]1` the Potency was inconclusive: 35.5 µM [activator, single point].
In the case of `CCCn1c(C)cc(C(=O)CN2C(=O)c3cccc(N)c3C2=O)c1C`, the Potency is reported as inconclusive: 2.24 µM [activator, full curve, poor fit].
For `Cc1cc(C(=O)NC2=NCCS2)cs1`, the Potency was inconclusive: 1.26 µM [activator, full curve, poor fit].
In the case of `Cc1ccc(NC(=O)CN2C(=O)N/C(=C/c3cccn3-c3ccc(C(=O)O)cc3)C2=O)cc1`, the Potency is reported as inconclusive: 35.5 µM [activator, single point].
With `COc1ccc(-c2nc3c(-c4ccc(F)cc4)cnn3cc2C)cc1F` the Potency was “inactive”.
In the case of `CC(=O)Nc1cccc(C(=O)OCCCOc2ccc(F)cc2)c1`, the Potency is reported as inconclusive: 10 µM [activator, partial curve, poor fit].
In the case of `Cc1ccc(NC(=O)c2ocnc2C)cc1Cl`, the Potency is reported as inconclusive: 28.2 µM [activator, single point].
For `CN1C(=O)/C(=C/C=C2\SCCN2C)N(C)C1=S`, the Potency was inconclusive: 2.82 µM [activator, full curve, poor fit].
For `CCOc1cccc2cc(-c3cn4cc(C)ccc4n3)c(=O)oc12`, the Potency was inconclusive: 2 µM [activator, partial curve, poor fit].
In the case of `Cc1ccc(S(=O)(=O)Oc2ccc(/C=C(/NC(=O)c3ccccc3)C(=O)Nc3ccccc3)cc2)cc1`, the Potency is reported as “inactive”.
With `O=C(COC(=O)CNC(=O)c1ccccc1)Nc1nc(-c2ccccc2)cs1` the Potency was active: 6.31 µM.
For `O=C(CSc1ccc(-c2ccccc2)nn1)c1ccccc1`, the Potency was inconclusive: 12.6 µM [activator, partial curve, poor fit].
In the case of `N#CC(C#N)=C1CCCc2sccc21`, the Potency is reported as “inactive”.
For `CN1CCN(C(=O)CCCN2C(=O)/C(=C/c3ccccc3)SC2=S)CC1`, the Potency was “inactive”.
With `COc1cccc(-c2nnc(-c3ccc(C)o3)o2)c1` the Potency was inconclusive: 1.58 µM [activator, partial curve, poor fit].
In the case of `CCNC(=S)NNC(=O)c1cc(-c2cccc(C)c2)nc2ccccc12`, the Potency is reported as active: 4.47 µM.
In the case of `COC(=O)[C@H](CC(C)C)NC(=O)/C=C/[C@H]1O[C@@H](n2cc(C)c(=O)[nH]c2=O)C[C@@H]1O`, the Potency is reported as “inactive”.
For `COc1ccc(O)c(C(=O)c2cc(C#N)c(=O)n(Cc3ccccc3)c2)c1`, the Potency was inconclusive: 11.2 µM [activator, partial curve, poor fit].
With `CCOc1ccc(-c2cc(C(=O)Nc3ccc(F)cc3)[nH]n2)c(C)c1` the Potency was inconclusive: 14.1 µM [activator, partial curve, poor fit].
For `O=C(NCCCn1ccnc1)/C(=C/c1cccs1)NC(=O)c1ccco1`, the Potency was “inactive”.
In the case of `CCc1ccc(C(=O)NC(=S)Nc2ccc3c(c2)OCCO3)cc1`, the Potency is reported as active: 6.31 µM.
In the case of `CCOCC(=O)Nc1nc2ccc(OC)cc2s1`, the Potency is reported as inconclusive: 1.26 µM [activator, full curve, poor fit].
With `CCOc1ccc(N2CC(O)Cn3c2nc2c3c(=O)n(CCCc3ccccc3)c(=O)n2C)cc1` (stereo unspecified) the Potency was “inactive”.
Potency means the concentration at half of the fitted maximal effect; tags describe the fitted curve by direction and shape.
